Test results taken from PMC5905293 (Molecular Biology of the Cell, 2018).

Target: the molecule itself
Assay: native gel or EMSA

B1: GJA[…]k (full-length connexin43) (natural protein)
chain: not shown
stoichiometry N: 6
